From the BET-seq Pho4 binding data (Le et al. 2018) come the findings set out here.

The other results are listed elsewhere or left out. Values were computed here from the reads of four pooled replicates and scatter widely.

The assay deals with T1, Pho4 (S. cerevisiae) (UniProt P07270).
T1 sequence: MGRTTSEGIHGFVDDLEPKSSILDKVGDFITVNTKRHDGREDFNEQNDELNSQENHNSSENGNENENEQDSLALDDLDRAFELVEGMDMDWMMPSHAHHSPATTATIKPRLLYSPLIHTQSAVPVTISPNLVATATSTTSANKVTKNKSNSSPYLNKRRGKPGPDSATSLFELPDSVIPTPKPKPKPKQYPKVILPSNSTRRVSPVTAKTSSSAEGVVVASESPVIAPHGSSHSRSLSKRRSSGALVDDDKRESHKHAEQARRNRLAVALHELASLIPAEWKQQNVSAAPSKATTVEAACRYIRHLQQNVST
Put plainly: relative binding free energy (BET-seq); higher = weaker binding. Particulars: reference: library average.
As for GGGCGCACGTGTAGGT, the “relative binding free energy” value stood at 0.01 kcal/mol.

As to TCTTGCACGTGTTTGC, the “relative binding free energy” value was -0.04 kcal/mol.

On to TCAGGCACGTGGGTTA, for which the “relative binding free energy” value was -0.13 kcal/mol.

As to GATTTCACGTGGGTAC, the “relative binding free energy” value was 0.22 kcal/mol.

Take GTACGCACGTGTAAGT: the “relative binding free energy” value was found to be 0.05 kcal/mol.

Turning to CGGGGCACGTGCTGAT, the “relative binding free energy” value was -0.13 kcal/mol.

Consider TTATACACGTGGAGGT, for which the “relative binding free energy” value is -0.06 kcal/mol.

Take GGGCTCACGTGGAGAG: the “relative binding free energy” value is 0.24 kcal/mol.

AGAGGCACGTGGGGTC: the “relative binding free energy” value is -0.08 kcal/mol.

Consider CTCTTCACGTGTTTTG, for which the “relative binding free energy” value turned out to be 0.31 kcal/mol.

For GGGATCACGTGCTTGG, the “relative binding free energy” value came out at 0.12 kcal/mol.

GTGAGCACGTGTAGCG: the “relative binding free energy” value is -0.05 kcal/mol.

On to AATGTCACGTGTTCGT, for which the “relative binding free energy” value is 0.09 kcal/mol.

For TTTTTCACGTGGAACG, the “relative binding free energy” value amounted to 0.33 kcal/mol.

As for GTTTACACGTGAGGAA, the “relative binding free energy” value is 0.25 kcal/mol.

Consider AATGTCACGTGCTGTG, for which the “relative binding free energy” value turned out to be 0.12 kcal/mol.

On to AAAGTCACGTGAGCGG, for which the “relative binding free energy” value turned out to be 0.49 kcal/mol.

For TAGATCACGTGATTGG, the “relative binding free energy” value worked out at 0.25 kcal/mol.

As for TATTGCACGTGTTAAG, the “relative binding free energy” value turned out to be 0.02 kcal/mol.

On to AGGGACACGTGTCGTA, for which the “relative binding free energy” value was -0.08 kcal/mol.

Regarding GTTAGCACGTGTTGAT, the “relative binding free energy” value was -0.06 kcal/mol.

For GTTTGCACGTGGAAAA, the “relative binding free energy” value stood at 0.14 kcal/mol.

Take GTTCACACGTGTTTAG: the “relative binding free energy” value is 0.11 kcal/mol.

For TGAATCACGTGTATGG, the “relative binding free energy” value was 0.08 kcal/mol.

Consider GGGCACACGTGGGCGG, for which the “relative binding free energy” value is -0.12 kcal/mol.

As for TTGGTCACGTGTAGCT, the “relative binding free energy” value was found to be 0.28 kcal/mol.

For GACGTCACGTGGTAGT, the “relative binding free energy” value was found to be 0.01 kcal/mol.

As to AGATTCACGTGATTGG, the “relative binding free energy” value was 0.27 kcal/mol.

As for GCGAACACGTGGGATG, the “relative binding free energy” value stood at 0.04 kcal/mol.

Consider TGATGCACGTGGATCT, for which the “relative binding free energy” value is -0.05 kcal/mol.

Turning to TATAACACGTGGGGAG, the “relative binding free energy” value was 0.07 kcal/mol.

Turning to GTTTTCACGTGCGTTC, the “relative binding free energy” value is 0.28 kcal/mol.

On to GAAGACACGTGTAGTG, for which the “relative binding free energy” value was found to be 0.03 kcal/mol.

On to AGAGGCACGTGTCTGG, for which the “relative binding free energy” value was -0.11 kcal/mol.

In the case of GGGTTCACGTGTTGTA, the “relative binding free energy” value amounted to 0.34 kcal/mol.

On to ATAGACACGTGTTATG, for which the “relative binding free energy” value is -0.09 kcal/mol.

With TTCGTCACGTGGGTTT, the “relative binding free energy” value is 0.05 kcal/mol.

For the sequence ATTAACACGTGTGCTA, the “relative binding free energy” value was 0.05 kcal/mol.

Take GGTATCACGTGCGCTT: the “relative binding free energy” value was 0.1 kcal/mol.

On to TTTGACACGTGGGTCG, for which the “relative binding free energy” value is -0.1 kcal/mol.

Regarding AGATTCACGTGGGCTT, the “relative binding free energy” value was 0.15 kcal/mol.

On to TGGTTCACGTGGACGA, for which the “relative binding free energy” value stood at 0.22 kcal/mol.

Take TGGGGCACGTGACACG: the “relative binding free energy” value was -0.09 kcal/mol.

As to CGGTGCACGTGGTTAA, the “relative binding free energy” value was -0.19 kcal/mol.

For TGTGGCACGTGGGTGG, the “relative binding free energy” value is -0.11 kcal/mol.

For the sequence ACGGCCACGTGTTTGG, the “relative binding free energy” value turned out to be 0 kcal/mol.

Regarding TAGTTCACGTGTGTGC, the “relative binding free energy” value was 0.29 kcal/mol.

Turning to ATAGTCACGTGTGCTA, the “relative binding free energy” value is 0.08 kcal/mol.

For the sequence AATTTCACGTGTCTTG, the “relative binding free energy” value stood at 0.3 kcal/mol.

For the sequence GTGTACACGTGTGTTC, the “relative binding free energy” value is 0.05 kcal/mol.

For the sequence TTGGGCACGTGTCAGG, the “relative binding free energy” value is -0.13 kcal/mol.

On to GTAGGCACGTGTTAGG, for which the “relative binding free energy” value was -0.02 kcal/mol.

In the case of CGGTTCACGTGCGTTG, the “relative binding free energy” value was 0.31 kcal/mol.

Take TTTGTCACGTGCATTG: the “relative binding free energy” value amounted to 0.01 kcal/mol.

On to TCGGCCACGTGAGAGG, for which the “relative binding free energy” value was determined as 0.21 kcal/mol.

For the sequence CATCGCACGTGGTGGT, the “relative binding free energy” value was -0.19 kcal/mol.

For CTTTACACGTGAGTTG, the “relative binding free energy” value came out at 0.34 kcal/mol.

As for CGTGTCACGTGTGTAT, the “relative binding free energy” value was 0.01 kcal/mol.

GGTTACACGTGGTATC: the “relative binding free energy” value amounted to 0.12 kcal/mol.

With CCGGTCACGTGGTAGT, the “relative binding free energy” value stood at 0.03 kcal/mol.

With GGTGTCACGTGTAAGG, the “relative binding free energy” value amounted to 0.19 kcal/mol.

In the case of AGACTCACGTGTTATG, the “relative binding free energy” value turned out to be 0.29 kcal/mol.

In the case of TACTTCACGTGTCGTT, the “relative binding free energy” value was 0.2 kcal/mol.
